# Laboratory results as given in PubChem BioAssay AID588342 (National Center for Advancing Translational Sciences (NCATS), 2011).
# Hit rate of the full screen: of about 360,000 compounds, about 25,000 (6.9%) were called active. The inconclusive results got no clear call from the source; some entries with a clear call stand among them for comparison. Calls follow the shape of the dose curve; as a rule, active = well fitted inhibition curve with a large enough effect; inconclusive = small, poorly fitted or top-dose-only effect; inactive = flat fitted curve, though single readings scatter. Potencies beside an inconclusive call are fits to weak or partial responses and may not hold up.
# Molecular target: Luciferin 4-monooxygenase (Photinus pyralis) (UniProt P08659)
# Assay: qHTS profiling assay for firefly luciferase inhibitor/activator using purifed enzyme and Km concentrations of substrates (counterscreen for miR-21 project); also: nearly all actives have a fitted effect of over 55% in size
# Settings: purified FLuc, luminescence inhibition; series mostly up to 57.5 µM
# In short: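 Purified P. pyralis luciferase, 10 nM final, with Km-level 10 uM D-luciferin and 10 uM ATP in 50 mM Tris acetate pH 7.5, 10 mM Mg acetate, 0.01% Tween-20, 0.05% BSA; 6-point qHTS titration about 60 µM downward; luminescence read.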
# Potency is read from the fitted curve at half-maximal effect; tags tell the direction and shape of the fitted curve.
# Chain of UniProt P08659 (P08659 whole entry, looked up): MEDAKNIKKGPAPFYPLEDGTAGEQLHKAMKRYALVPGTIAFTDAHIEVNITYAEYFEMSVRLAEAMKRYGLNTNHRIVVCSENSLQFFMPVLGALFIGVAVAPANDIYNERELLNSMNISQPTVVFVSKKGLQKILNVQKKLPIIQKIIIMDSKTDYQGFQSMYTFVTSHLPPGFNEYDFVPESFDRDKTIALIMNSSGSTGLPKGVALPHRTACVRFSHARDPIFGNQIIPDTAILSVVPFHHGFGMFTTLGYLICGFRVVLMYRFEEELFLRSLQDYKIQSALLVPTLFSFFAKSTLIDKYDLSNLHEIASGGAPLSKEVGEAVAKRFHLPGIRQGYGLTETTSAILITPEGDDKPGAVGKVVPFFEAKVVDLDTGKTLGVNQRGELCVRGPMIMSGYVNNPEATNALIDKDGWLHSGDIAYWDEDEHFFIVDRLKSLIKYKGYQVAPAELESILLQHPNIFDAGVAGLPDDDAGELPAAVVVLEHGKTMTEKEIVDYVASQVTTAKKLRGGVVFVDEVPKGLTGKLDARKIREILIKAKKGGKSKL
row,Compound,Potency
1,COc1ccc(-c2nnc(SCC(=O)Nc3cccc(C(F)(F)F)c3)s2)cc1,"inconclusive: 21.3 µM [inhibitor, partial curve, poor fit]"
2,Cc1ccc(SCc2cc(-c3ccc(Cl)cc3)no2)cc1,"inconclusive: 30.1 µM [inhibitor, partial curve]"
3,CCOc1cc(/C=N/N=C2/NC(=O)C(CC(=O)O)S2)ccc1OS(=O)(=O)c1ccc(C)cc1 (stereo not drawn),"inconclusive: 37.9 µM [inhibitor, single point]"
4,Cc1nn(C)c2c1c(C(F)(F)F)cc(=O)n2C(C)C(=O)Nc1ccccc1F (stereo not drawn),inactive
5,Cc1ccc(S(=O)(=O)Nc2ccc3ncccc3c2)cc1,inactive
6,COc1cc(C(=O)Nc2ccc(NC(=O)c3ccco3)nc2)cc(OC)c1OC,inactive
7,COc1ccc(NC(=O)c2c(NCc3cccs3)sc3c2CCC(C)C3)c(OC)c1 (stereo not drawn),"inconclusive: 13.5 µM [inhibitor, partial curve]"
8,COc1cccc(/C=N/NC(=O)c2ccccc2NC(=O)c2ccco2)c1OC,active: 10.7 µM
9,O=C(CSc1nnc(-c2ccccc2Cl)o1)N1CCCc2ccccc21,active: 23.9 µM
10,COc1cc(/C=C/c2ccc3cccc(O)c3n2)c(Br)cc1O,"inconclusive: 15.1 µM [inhibitor, partial curve]"
11,C/C(=N\Nc1ccccc1)c1cc2ccccc2oc1=O,active: 21.3 µM
12,COc1cccc(N=C2NC(=O)/C(=C/c3cc([N+](=O)[O-])ccc3O)S2)c1,"inconclusive: 23.9 µM [inhibitor, partial curve, poor fit]"
13,CCc1ccc(NC(=O)c2noc(C(C)C)c2[N+](=O)[O-])cc1,"inconclusive: 26.9 µM [inhibitor, single point]"
14,Cc1oc(-c2ccc(Cl)cc2)nc1CN1CCCC(C(=O)NCCc2ccc(Cl)cc2)C1 (stereo not drawn),"inconclusive: 21.3 µM [inhibitor, single point]"
15,O=C(/C=C/c1cccc(OCc2ccccc2)c1)c1cccnc1,"inconclusive: 26.9 µM [inhibitor, single point]"
16,O=C(COC(=O)CNC(=O)c1ccc(Cl)cc1Cl)Nc1ccc(N2CCOCC2)cc1,"inconclusive: 26.9 µM [inhibitor, partial curve, poor fit]"
17,CCN1C(=NCCCOC(C)C)N[C@@H](CCc2ccccc2)[C@H](C(=O)NCCCOC(C)C)[C@H]1C,inactive
18,CC1CCC(NC(=O)c2ccc(-n3cncn3)c([N+](=O)[O-])c2)CC1 (stereo not drawn),"inconclusive: 21.3 µM [inhibitor, partial curve, poor fit]"
19,CCOc1ccc(-c2c(C(=O)N/N=C/c3ccsc3)nnn2-c2nonc2N)cc1,inactive
20,Cc1ccc(S(=O)(=O)c2c(O)cc(C)c(NS(=O)(=O)c3ccc(Br)cc3)c2C)cc1,"inconclusive: 15.1 µM [inhibitor, partial curve, poor fit]"
21,N=c1c2c(n(Cc3ccccc3)c3c1CCC3)CCC2,inactive
22,CCC(C(=O)Nc1cccc(Cl)c1C)n1nc(C)c2sc3ccccc3c2c1=O (stereo not drawn),active: 10.7 µM
23,CC(Sc1nc(N)cc(=O)[nH]1)C(=O)Nc1sc2c(c1C#N)CCCC2 (stereo not drawn),"inconclusive: 9.53 µM [inhibitor, partial curve]"

row,Compound,Potency
1,CCc1cc(C(=O)OC)c(NC(=O)CC2SC(N)=NC2=O)s1 (stereo not drawn),"inconclusive: 0.0054 µM [inhibitor, partial curve, poor fit]"
2,CSc1nc2sc3c(c2c(=S)[nH]1)CC(C)(C)OC3,active: 19 µM
3,COc1cc(C=O)ccc1OCc1ccncc1,"inconclusive: 26.9 µM [inhibitor, partial curve, poor fit]"
4,O=C(O)c1ccccc1-c1ccc(/C=C/c2cc(C(F)(F)F)[nH]c(=O)n2)o1,"inconclusive: 13.5 µM [inhibitor, partial curve]"
5,COc1ccc(N2CCN(C(=O)c3cc(-c4cccs4)nc4ccccc34)CC2)cc1,"inconclusive: 10.7 µM [inhibitor, partial curve]"
6,COc1ccccc1NC(=O)Cn1c(O)c(N=NC(=O)c2ccccc2O)c2ccccc21,"inconclusive: 3.38 µM [inhibitor, partial curve]"
7,COC(=O)c1ccc(-c2noc(CN3C[C@H]4CC[C@H]3C4)n2)cc1,active: 21.3 µM
8,CCOC(=O)C1(CCOC)CCN(Cc2ccc(C(=O)OC)cc2)CC1,"inconclusive: 19 µM [inhibitor, partial curve]"
9,O=C(c1ccccc1)c1ccc(N2CCCC2)cc1,active: 6.75 µM
10,CCOC(=O)c1c(NC(=O)C2CCCN(S(=O)(=O)c3ccc(C)cc3)C2)sc2c1CCCC2 (stereo not drawn),inactive
11,O=C(CSc1nc2ccccc2nc1Cc1ccc(Cl)cc1)Nc1ccc2c(c1)OCO2,inactive
12,O=C(NC(=S)Nc1ccccn1)c1ccc([N+](=O)[O-])cc1,active: 5.36 µM
13,CCCn1c(NC(=O)c2ccccc2)nc2ccccc21,"inconclusive: 23.9 µM [inhibitor, single point]"
14,O=C(Nc1nnc(-c2ccncc2)o1)c1ccccc1,"inconclusive: 30.1 µM [inhibitor, partial curve, poor fit]"
15,CC(C)/C=C1\CCc2c([nH]c3ccccc23)C1=O,"inconclusive: 23.9 µM [inhibitor, single point]"
16,CN1c2ccccc2C2(C)CCCC3=Cc4cc([N+](=O)[O-])cc([N+](=O)[O-])c4OC312 (stereo not drawn),inactive
17,CCC(C)Nc1nc(N)c([N+](=O)[O-])c(Nc2cc(OC)ccc2OC)n1 (stereo not drawn),inactive
18,COc1ccc(C2Nc3ccccc3C(=O)N2c2ccc(C)cc2)cc1COc1ccccn1 (stereo not drawn),"inconclusive: 16.9 µM [inhibitor, partial curve]"
19,CCCSc1nsc(NC(=O)c2cccnc2OCC)n1,"inconclusive: 30.1 µM [inhibitor, partial curve, poor fit]"
20,Cc1cc(Cl)c2oc(C(=O)NC(C)c3ccncn3)c(C)c2c1 (stereo not drawn),inactive
21,CC(NC(=O)c1ccccc1NC(=O)CN1CCc2ccccc2C1)c1ccccc1 (stereo not drawn),inactive
22,Cc1nc2c(C(=O)NCCc3ccc(Cl)cc3)c[nH]n2c(=O)c1Cc1ccc(Cl)cc1,"inconclusive: 37.9 µM [inhibitor, single point]"
23,CC(=O)OCC(=O)Nc1ccc(N=Nc2ccccc2)cc1,active: 12 µM

row,Compound,Potency
1,CCCCOc1ccc(CN2C(=O)C(=O)c3cc(Br)cc(C)c32)cc1OC,"inconclusive: 42.6 µM [inhibitor, partial curve, poor fit]"
2,O=C(O/N=C1\CCCc2ccccc21)C1CC1,"inconclusive: 33.8 µM [inhibitor, partial curve, poor fit]"
3,O=[N+]([O-])c1ccc(-c2c(-c3ccccc3)ncc3cc(F)ccc23)cc1,"inconclusive: 10.7 µM [inhibitor, single point]"
4,COc1cccc(/C(C)=N/NS(=O)(=O)c2ccc(Cl)cc2)c1,"inconclusive: 30.1 µM [inhibitor, partial curve, poor fit]"
5,Cc1ccc(CCNC(=O)c2cccc(NC3=NC4CS(=O)(=O)CC4S3)c2)cc1 (stereo not drawn),"inconclusive: 21.3 µM [inhibitor, partial curve]"
6,Cc1nn(-c2ccc(F)cc2)c2sc(C(=O)N3CCCCCC3)cc12,"inconclusive: 16.9 µM [inhibitor, partial curve]"
7,CC1CN(Cc2csc(-c3ccc(Cl)cc3)n2)CC(C)O1 (stereo not drawn),"inconclusive: 30.1 µM [inhibitor, single point]"
8,O=C(NC(=S)Nc1ccc(Br)c(Cl)c1)C1CC1,"inconclusive: 21.3 µM [inhibitor, partial curve, poor fit]"
9,COC(=O)c1ccc(-c2ccc(/C=N/N3C(=O)C4C5C=CC(CC5)C4C3=O)o2)cc1 (stereo not drawn),active: 23.9 µM
10,O=C(NCC(=O)N1CCCCCCC1)c1ccco1,"inconclusive: 26.9 µM [inhibitor, single point]"
11,CN(C(=O)c1sc2nc(N3CCOCC3)c3c(c2c1N)CCCC3)c1ccccc1,inactive
12,Cc1cccc(-n2c(-c3csc(C)c3C)n[nH]c2=S)c1,"inconclusive: 37.9 µM [inhibitor, partial curve, poor fit]"
13,CCOC(=O)C1CCN(c2nc3ccccc3nc2C(C#N)C(=O)NCCc2ccccc2)CC1 (stereo not drawn),active: 19 µM
14,CCCCCCCSc1nnc(-c2ccccc2N)c(=O)[nH]1,"inconclusive: 26.9 µM [inhibitor, single point]"
15,Cc1cccc(OCC(=O)Nc2ccccc2OCc2cc(=O)n3ccccc3n2)c1,"inconclusive: 37.9 µM [inhibitor, partial curve, poor fit]"
16,COC(=O)c1sccc1NC(=O)Nc1ccc(OC)c(OC)c1,"inconclusive: 23.9 µM [inhibitor, single point]"
17,COc1cc2c(cc1OC)CN(C(=O)Nc1ccccc1Cl)CC2,"inconclusive: 30.1 µM [inhibitor, single point]"
18,Cc1ccc(NS(=O)(=O)c2ccc3c(c2)CC(C)N3C(=O)C2CCC2)cc1Cl (stereo not drawn),"inconclusive: 10.7 µM [inhibitor, partial curve, poor fit]"
19,COc1ccc(OC)c(NC(=O)CSc2ccc(-c3ccco3)nn2)c1,"inconclusive: 37.9 µM [inhibitor, single point]"
20,CCCc1cc(=O)n2c(nc3ccccc32)[nH]1,active: 16.9 µM
21,Cc1noc(C)c1C(=O)N1CCCC(C(=O)c2cccc(OC(C)C)c2)C1 (stereo not drawn),inactive
22,CCn1cc(C(=O)N2CCN(c3ccc(F)cc3)CC2)c(=O)c2cc(S(=O)(=O)N(C)C3CCCCC3)ccc21,"inconclusive: 30.1 µM [inhibitor, partial curve, poor fit]"
